Binding data for eleven molecules are collected here from article PMC10475032.

Chains of the proteins cited; added tags and fusions are not shown. Lines headed by an entry give the natural chain unless they say otherwise; changes in a name come on top. Residues count along the entry.
UniProt Q7Z434: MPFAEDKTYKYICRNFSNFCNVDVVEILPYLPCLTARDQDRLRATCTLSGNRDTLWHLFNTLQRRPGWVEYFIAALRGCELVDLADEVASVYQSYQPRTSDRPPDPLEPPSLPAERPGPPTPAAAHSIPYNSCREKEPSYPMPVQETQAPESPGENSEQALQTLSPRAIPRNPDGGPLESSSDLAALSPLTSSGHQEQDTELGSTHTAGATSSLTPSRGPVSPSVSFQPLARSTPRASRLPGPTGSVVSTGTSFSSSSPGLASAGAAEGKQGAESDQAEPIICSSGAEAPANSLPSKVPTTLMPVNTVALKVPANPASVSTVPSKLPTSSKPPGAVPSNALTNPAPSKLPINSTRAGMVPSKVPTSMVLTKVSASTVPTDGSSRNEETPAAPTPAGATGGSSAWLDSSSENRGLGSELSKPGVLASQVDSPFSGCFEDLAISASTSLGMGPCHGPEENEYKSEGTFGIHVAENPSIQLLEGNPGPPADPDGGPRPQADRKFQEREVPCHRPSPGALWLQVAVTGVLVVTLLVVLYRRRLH
UniProt P11413: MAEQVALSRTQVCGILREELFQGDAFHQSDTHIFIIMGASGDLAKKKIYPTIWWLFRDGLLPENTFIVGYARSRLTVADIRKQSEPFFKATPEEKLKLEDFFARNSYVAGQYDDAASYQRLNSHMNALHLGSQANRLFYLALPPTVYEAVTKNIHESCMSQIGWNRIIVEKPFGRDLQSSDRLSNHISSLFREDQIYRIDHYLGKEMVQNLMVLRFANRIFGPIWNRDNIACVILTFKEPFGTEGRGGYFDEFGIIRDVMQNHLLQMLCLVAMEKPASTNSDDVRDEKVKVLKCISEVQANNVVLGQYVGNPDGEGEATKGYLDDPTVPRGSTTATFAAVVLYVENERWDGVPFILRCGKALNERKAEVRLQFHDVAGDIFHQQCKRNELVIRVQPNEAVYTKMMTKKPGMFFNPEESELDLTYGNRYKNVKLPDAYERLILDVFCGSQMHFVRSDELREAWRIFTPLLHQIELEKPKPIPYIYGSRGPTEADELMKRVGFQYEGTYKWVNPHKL
C-terminal domain of G6PD (amino acids 211-515): residues 211-515 of P11413
UniProt Q00612: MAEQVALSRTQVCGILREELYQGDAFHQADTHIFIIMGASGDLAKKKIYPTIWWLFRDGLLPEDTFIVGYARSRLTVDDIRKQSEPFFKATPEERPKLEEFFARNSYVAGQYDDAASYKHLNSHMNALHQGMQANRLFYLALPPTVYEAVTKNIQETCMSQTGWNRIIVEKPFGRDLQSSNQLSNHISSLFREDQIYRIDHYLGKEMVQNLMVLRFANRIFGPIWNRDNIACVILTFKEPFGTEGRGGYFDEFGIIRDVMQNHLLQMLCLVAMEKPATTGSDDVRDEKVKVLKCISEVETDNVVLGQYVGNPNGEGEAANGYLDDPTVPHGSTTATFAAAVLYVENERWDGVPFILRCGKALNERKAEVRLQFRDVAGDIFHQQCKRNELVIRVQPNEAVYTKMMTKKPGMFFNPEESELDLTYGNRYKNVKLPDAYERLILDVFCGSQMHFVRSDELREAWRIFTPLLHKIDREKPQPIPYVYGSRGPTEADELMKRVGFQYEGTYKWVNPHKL
UniProt Q9Y6K9: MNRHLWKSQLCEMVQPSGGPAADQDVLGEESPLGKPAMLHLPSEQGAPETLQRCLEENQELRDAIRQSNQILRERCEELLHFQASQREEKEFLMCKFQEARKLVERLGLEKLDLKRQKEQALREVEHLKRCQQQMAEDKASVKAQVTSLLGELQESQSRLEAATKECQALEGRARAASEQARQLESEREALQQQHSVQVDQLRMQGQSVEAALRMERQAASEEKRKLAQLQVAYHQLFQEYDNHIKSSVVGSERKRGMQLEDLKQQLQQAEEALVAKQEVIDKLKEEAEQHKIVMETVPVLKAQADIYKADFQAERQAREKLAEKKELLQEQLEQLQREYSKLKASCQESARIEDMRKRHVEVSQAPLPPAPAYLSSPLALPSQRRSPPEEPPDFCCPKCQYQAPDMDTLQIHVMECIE

Experiment [1] concerns the target full-length MAVS (MAVS-WT), expressed in Mavs-/- BMDMs (UniProt Q7Z434). The experiment in a line: co-IP; Mavs-/- BMDMs transfected with control vector or MAVS alleles for 48 h; co-precipitated endogenous proteins detected by immunoblot. A general note: Immunoblotting shows a protein as a band on a membrane.
The target of experiment [2] is glucose-6-phosphate dehydrogenase (G6PD), expressed from plasmid (UniProt P11413). Briefly: co-IP; HEK293 cells transfected with the indicated plasmids for 48 h; lysis in 20 mM Tris-HCl pH 7.5, 150 mM NaCl, 1 mM EDTA, 1% Nonidet P-40; antibody cross-linked to protein G-agarose, overnight at 4 °C; immunoblot.
Experiment [3] deals with glutamine-fructose-6-phosphate transaminase 2 (GFPT2), expressed from plasmid (UniProt O94808). The experiment is described as above.
Experiment [4] has as its target C-terminal domain of G6PD (amino acids 211-515) (UniProt P11413). The experiment in a line: co-IP; truncation mutants of GFPT2 or G6PD co-expressed with MAVS, TRAF6 or TRAF2; cells not told in the text shown (Supplementary Fig. 11e-g, 13c, d).
Experiment [5] has as its target T1, D1 domain of GFPT2 (amino acids 1-360) (UniProt O94808).
T1 sequence: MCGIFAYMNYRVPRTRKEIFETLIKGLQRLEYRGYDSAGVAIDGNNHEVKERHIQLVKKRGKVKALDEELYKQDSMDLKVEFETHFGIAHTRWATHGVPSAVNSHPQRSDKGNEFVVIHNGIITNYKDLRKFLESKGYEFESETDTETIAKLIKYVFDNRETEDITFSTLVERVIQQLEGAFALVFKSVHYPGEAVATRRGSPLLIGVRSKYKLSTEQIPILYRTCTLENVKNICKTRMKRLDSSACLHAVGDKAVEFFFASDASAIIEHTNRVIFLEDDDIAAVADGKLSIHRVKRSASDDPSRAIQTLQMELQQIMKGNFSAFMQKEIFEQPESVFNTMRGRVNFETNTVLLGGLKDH
The experiment is described as above.

The target in experiment [6] is T2, D3 domain of GFPT2 (amino acids 531-682) (UniProt O94808).
T2 sequence: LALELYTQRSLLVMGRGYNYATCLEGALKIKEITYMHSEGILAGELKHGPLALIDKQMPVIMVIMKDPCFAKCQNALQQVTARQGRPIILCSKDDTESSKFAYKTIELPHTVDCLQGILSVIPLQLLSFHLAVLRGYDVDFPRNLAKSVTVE
The description is as above.

Experiment [7] deals with G6PD, endogenous in THP-1 cells (human (endogenous in THP-1)) (UniProt P11413). The experiment in a line: co-IP.

No constants are given. Whether binding was seen depends on the method and setting. In cells and extracts the contact can be indirect. Some results given as binding are weak or reduced against the parent protein; the word gives no strength. For part of these data: Where a sequence is shown, tags or fusion partners need not be part of it.

In the case of “G6PD, endogenous in mouse BMDMs (from UniProt Q00612 1-515) (enzyme)”, the binding result in experiment [1] is on record as “binds”. For “GFPT2, endogenous in mouse BMDMs (from UniProt Q9Z2Z9 1-682) (enzyme)”, in experiment [1], the binding entry is on record as “binds”. Consider “MAVS, expressed from plasmid (from UniProt Q7Z434 1-540)”, for which the binding entry in experiment [2], in experiment [3], in experiment [4], in experiment [5] and in experiment [6] was “binds” each time. “NEMO, expressed from plasmid (from UniProt Q9Y6K9 1-419)”: the binding result in experiment [3] is listed as “no binding”. For “MAVS, endogenous in THP-1 cells (from UniProt Q7Z434 1-540)”, the binding entry in experiment [7] was “binds”.

B1: TRAF2, endogenous in mouse BMDMs (protein, UniProt P39429 1-501)
chain: MAAASVTSPGSLELLQPGFSKTLLGTRLEAKYLCSACKNILRRPFQAQCGHRYCSFCLTSILSSGPQNCAACVYEGLYEEGISILESSSAFPDNAARREVESLPAVCPNDGCTWKGTLKEYESCHEGLCPFLLTECPACKGLVRLSEKEHHTEQECPKRSLSCQHCRAPCSHVDLEVHYEVCPKFPLTCDGCGKKKIPRETFQDHVRACSKCRVLCRFHTVGCSEMVETENLQDHELQRLREHLALLLSSFLEAQASPGTLNQVGPELLQRCQILEQKIATFENIVCVLNREVERVAVTAEACSRQHRLDQDKIEALSNKVQQLERSIGLKDLAMADLEQKVSELEVSTYDGVFIWKISDFTRKRQEAVAGRTPAIFSPAFYTSRYGYKMCLRVYLNGDGTGRGTHLSLFFVVMKGPNDALLQWPFNQKVTLMLLDHNNREHVIDAFRPDVTSSSFQRPVSDMNIASGCPLFCPVSKMEAKNSYVRDDAIFIKAIVDLTGL
Consider B1, for which the binding entry in experiment [1] is on record as “binds”.

B2: interferon regulatory factor 1 (IRF1), expressed from plasmid (protein, UniProt P10914 1-325)
chain: MPITRMRMRPWLEMQINSNQIPGLIWINKEEMIFQIPWKHAAKHGWDINKDACLFRSWAIHTGRYKAGEKEPDPKTWKANFRCAMNSLPDIEEVKDQSRNKGSSAVRVYRMLPPLTKNQRKERKSKSSRDAKSKAKRKSCGDSSPDTFSDGLSSSTLPDDHSSYTVPGYMQDLEVEQALTPALSPCAVSSTLPDWHIPVEVVPDSTSDLYNFQVSPMPSTSEATTDEDEEGKLPEDIMKLLEQSEWQPTNVDGKGYLLNEPGVQPTSVYGDFSCKEEPEIDSPGGDIGLSLQRVFTDLKNMDATWLDSLLTPVRLPSIQAIPCAP
As to B2, the binding result in experiment [2] is given as “no binding”.

B3: RIG-I, expressed from plasmid (protein, UniProt O95786 1-925)
chain: MTTEQRRSLQAFQDYIRKTLDPTYILSYMAPWFREEEVQYIQAEKNNKGPMEAATLFLKFLLELQEEGWFRGFLDALDHAGYSGLYEAIESWDFKKIEKLEEYRLLLKRLQPEFKTRIIPTDIISDLSECLINQECEEILQICSTKGMMAGAEKLVECLLRSDKENWPKTLKLALEKERNKFSELWIVEKGIKDVETEDLEDKMETSDIQIFYQEDPECQNLSENSCPPSEVSDTNLYSPFKPRNYQLELALPAMKGKNTIICAPTGCGKTFVSLLICEHHLKKFPQGQKGKVVFFANQIPVYEQQKSVFSKYFERHGYRVTGISGATAENVPVEQIVENNDIIILTPQILVNNLKKGTIPSLSIFTLMIFDECHNTSKQHPYNMIMFNYLDQKLGGSSGPLPQVIGLTASVGVGDAKNTDEALDYICKLCASLDASVIATVKHNLEELEQVVYKPQKFFRKVESRISDKFKYIIAQLMRDTESLAKRICKDLENLSQIQNREFGTQKYEQWIVTVQKACMVFQMPDKDEESRICKALFLYTSHLRKYNDALIISEHARMKDALDYLKDFFSNVRAAGFDEIEQDLTQRFEEKLQELESVSRDPSNENPKLEDLCFILQEEYHLNPETITILFVKTRALVDALKNWIEGNPKLSFLKPGILTGRGKTNQNTGMTLPAQKCILDAFKASGDHNILIATSVADEGIDIAQCNLVILYEYVGNVIKMIQTRGRGRARGSKCFLLTSNAGVIEKEQINMYKEKMMNDSILRLQTWDEAVFREKILHIQTHEKFIRDSQEKPKPVPDKENKKLLCRKCKALACYTADVRVIEECHYTVLGDAFKECFVSRPHPKPKQFSSFEKRAKIFCARQNCSHDWGIHVKYKTFEIPVIKIESFVVEDIATGVQTLYSKWKDFHFEKIPFDPAEMSK
B3: the binding entry in experiment [3] is recorded as “no binding”.

B4: IκB kinase β, expressed from plasmid (enzyme, UniProt O14920 1-756)
chain: MSWSPSLTTQTCGAWEMKERLGTGGFGNVIRWHNQETGEQIAIKQCRQELSPRNRERWCLEIQIMRRLTHPNVVAARDVPEGMQNLAPNDLPLLAMEYCQGGDLRKYLNQFENCCGLREGAILTLLSDIASALRYLHENRIIHRDLKPENIVLQQGEQRLIHKIIDLGYAKELDQGSLCTSFVGTLQYLAPELLEQQKYTVTVDYWSFGTLAFECITGFRPFLPNWQPVQWHSKVRQKSEVDIVVSEDLNGTVKFSSSLPYPNNLNSVLAERLEKWLQLMLMWHPRQRGTDPTYGPNGCFKALDDILNLKLVHILNMVTGTIHTYPVTEDESLQSLKARIQQDTGIPEEDQELLQEAGLALIPDKPATQCISDGKLNEGHTLDMDLVFLFDNSKITYETQISPRPQPESVSCILQEPKRNLAFFQLRKVWGQVWHSIQTLKEDCNRLQQGQRAAMMNLLRNNSCLSKMKNSMASMSQQLKAKLDFFKTSIQIDLEKYSEQTEFGITSDKLLLAWREMEQAVELCGRENEVKLLVERMMALQTDIVDLQRSPMGRKQGGTLDDLEEQARELYRRLREKPRDQRTEGDSQEMVRLLLQAIQSFEKKVRVIYTQLSKTVVCKQKALELLPKVEEVVSLMNEDEKTVVRLQEKRQKELWNLLKIACSKVRGPVSGSPDSMNASRLSQPGQLMSQPSTASNSLPEPAKKSEELVAEAHNLCTLLENAIQDTVREQDQSFTALDWSWLQTEEEEHSCLEQAS
Consider B4, for which the binding result in experiment [3] is “no binding”.

B5: TRAF6, endogenous in mouse BMDMs (protein, UniProt P70196 1-530)
chain: MSLLNCENSCGSSQSSSDCCAAMAASCSAAVKDDSVSGSASTGNLSSSFMEEIQGYDVEFDPPLESKYECPICLMALREAVQTPCGHRFCKACIIKSIRDAGHKCPVDNEILLENQLFPDNFAKREILSLTVKCPNKGCLQKMELRHLEDHQVHCEFALVNCPQCQRPFQKCQVNTHIIEDCPRRQVSCVNCAVSMAYEEKEIHDQSCPLANIICEYCGTILIREQMPNHYDLDCPTAPIPCTFSVFGCHEKMQRNHLARHLQENTQLHMRLLAQAVHNVNLALRPCDAASPSRGCRPEDPNYEETIKQLESRLVRQDHQIRELTAKMETQSMYVGELKRTIRTLEDKVAEMEAQQCNGIYIWKIGNFGMHLKSQEEERPVVIHSPGFYTGRPGYKLCMRLHLQLPTAQRCANYISLFVHTMQGEYDSHLPWPFQGTIRLTILDQSEALIRQNHEEVMDAKPELLAFQRPTIPRNPKGFGYVTFMHLEALRQGTFIKDDTLLVRCEVSTRFDMGGLRKEGFQPRSTDAGV
B5: the binding entry in experiment [1] was “binds”.

B6: TAK1, expressed from plasmid (enzyme, UniProt O43318 1-606)
chain: MSTASAASSSSSSSAGEMIEAPSQVLNFEEIDYKEIEVEEVVGRGAFGVVCKAKWRAKDVAIKQIESESERKAFIVELRQLSRVNHPNIVKLYGACLNPVCLVMEYAEGGSLYNVLHGAEPLPYYTAAHAMSWCLQCSQGVAYLHSMQPKALIHRDLKPPNLLLVAGGTVLKICDFGTACDIQTHMTNNKGSAAWMAPEVFEGSNYSEKCDVFSWGIILWEVITRRKPFDEIGGPAFRIMWAVHNGTRPPLIKNLPKPIESLMTRCWSKDPSQRPSMEEIVKIMTHLMRYFPGADEPLQYPCQYSDEGQSNSATSTGSFMDIASTNTSNKSDTNMEQVPATNDTIKRLESKLLKNQAKQQSESGRLSLGASRGSSVESLPPTSEGKRMSADMSEIEARIAATTAYSKPKRGHRKTASFGNILDVPEIVISGNGQPRRRSIQDLTVTGTEPGQVSSRSSSPSVRMITTSGPTSEKPTRSHPWTPDDSTDTNGSDNSIPMAYLTLDHQLQPLAPCPNSKESMAVFEQHCKMAQEYMKVQTEIALLLQRKQELVAELDQDEKDQQNTSRLVQEHKKLLDENKSLSTYYQQCKKQLEVIRSQQQKRQGTS
B6: the binding entry in experiment [3] is “no binding”.
